T1: RBFOX1 RRM RbFoxmut (Fox-RRM*) (Homo sapiens, UniProt Q9NWB1 109-208, R118D;E147R;N151S;E152T)
T1 sequence: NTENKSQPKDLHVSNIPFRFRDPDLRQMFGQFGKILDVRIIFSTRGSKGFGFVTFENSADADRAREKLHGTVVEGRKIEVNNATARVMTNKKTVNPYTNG

B1: GGUAUUC (DNA:RNA)
RNA: GGGAGACCGGAAUUCAGAUUGUCCGGUAUUCUUAAAUCCCGUCGUAGCCACCA
DNA 1: CAATCTGAATTCCGGTCTCCC
DNA 2: TGGTGGCTACGACGGGATT
B2: UGCUUAA (DNA:RNA)
RNA: B1 RNA with G25U, U27C, A28U, U30A, C31A
DNA 1: CAATCTGAATTCCGGTCTCCC
DNA 2: TGGTGGCTACGACGGGATT
B3: UGCAUUG (DNA:RNA)
RNA: B1 RNA with G25U, U27C, C31G
DNA 1: CAATCTGAATTCCGGTCTCCC
DNA 2: TGGTGGCTACGACGGGATT
B4: GGUCAUC (DNA:RNA)
RNA: B1 RNA with A28C, U29A
DNA 1: CAATCTGAATTCCGGTCTCCC
DNA 2: TGGTGGCTACGACGGGATT
B5: CCAACGG (DNA:RNA)
RNA: B1 RNA with G25C, G26C, U27A, U29C, U30G, C31G
DNA 1: CAATCTGAATTCCGGTCTCCC
DNA 2: TGGTGGCTACGACGGGATT
B6: GACGGUC (DNA:RNA)
RNA: B1 RNA with G26A, U27C, A28G, U29G
DNA 1: CAATCTGAATTCCGGTCTCCC
DNA 2: TGGTGGCTACGACGGGATT
B7: UUCAGAC (DNA:RNA)
RNA: B1 RNA with G25U, G26U, U27C, U29G, U30A
DNA 1: CAATCTGAATTCCGGTCTCCC
DNA 2: TGGTGGCTACGACGGGATT
B8: AGUAGUC (DNA:RNA)
RNA: B1 RNA with G25A, U29G
DNA 1: CAATCTGAATTCCGGTCTCCC
DNA 2: TGGTGGCTACGACGGGATT
B9: CAAGGGC (DNA:RNA)
RNA: B1 RNA with G25C, G26A, U27A, A28G, U29G, U30G
DNA 1: CAATCTGAATTCCGGTCTCCC
DNA 2: TGGTGGCTACGACGGGATT
B10: ACGCCCG (DNA:RNA)
RNA: GGGAGACCGGAAUUCAGAUUGUCCACGCCCGUUAAAUCCCGUCGUAGCCACCA
DNA 1: CAATCTGAATTCCGGTCTCCC
DNA 2: TGGTGGCTACGACGGGATT
B11: AACUAUG (DNA:RNA)
RNA: B10 RNA with C26A, G27C, C28U, C29A, C30U
DNA 1: CAATCTGAATTCCGGTCTCCC
DNA 2: TGGTGGCTACGACGGGATT
B12: CUUUCAU (DNA:RNA)
RNA: B10 RNA with A25C, C26U, G27U, C28U, C30A, G31U
DNA 1: CAATCTGAATTCCGGTCTCCC
DNA 2: TGGTGGCTACGACGGGATT
B13: AGCCUUG (DNA:RNA)
RNA: B10 RNA with C26G, G27C, C29U, C30U
DNA 1: CAATCTGAATTCCGGTCTCCC
DNA 2: TGGTGGCTACGACGGGATT
B14: AGCUGGC (DNA:RNA)
RNA: B1 RNA with G25A, U27C, A28U, U29G, U30G
DNA 1: CAATCTGAATTCCGGTCTCCC
DNA 2: TGGTGGCTACGACGGGATT
B15: UGCGACC (DNA:RNA)
RNA: B1 RNA with G25U, U27C, A28G, U29A, U30C
DNA 1: CAATCTGAATTCCGGTCTCCC
DNA 2: TGGTGGCTACGACGGGATT
B16: GACAACC (DNA:RNA)
RNA: B1 RNA with G26A, U27C, U29A, U30C
DNA 1: CAATCTGAATTCCGGTCTCCC
DNA 2: TGGTGGCTACGACGGGATT
B17: CACCCCC (DNA:RNA)
RNA: B10 RNA with A25C, C26A, G27C, G31C
DNA 1: CAATCTGAATTCCGGTCTCCC
DNA 2: TGGTGGCTACGACGGGATT
B18: UUGCGUC (DNA:RNA)
RNA: B10 RNA with A25U, C26U, C29G, C30U, G31C
DNA 1: CAATCTGAATTCCGGTCTCCC
DNA 2: TGGTGGCTACGACGGGATT
B19: GUUCACA (DNA:RNA)
RNA: B10 RNA with A25G, C26U, G27U, C29A, G31A
DNA 1: CAATCTGAATTCCGGTCTCCC
DNA 2: TGGTGGCTACGACGGGATT
B20: GCACAUA (DNA:RNA)
RNA: B10 RNA with A25G, G27A, C29A, C30U, G31A
DNA 1: CAATCTGAATTCCGGTCTCCC
DNA 2: TGGTGGCTACGACGGGATT

Changes are numbered by the printed parent chain; changes in the protein carry UniProt numbers. The list shows a part of the results.

In the experiment the target is T1, RBFOX1 RRM RbFoxmut (Fox-RRM*). Nature of the experiment: EMSA; HiTS-Eq, 1 nM pool, 10 min; buffer printed only for the single-RNA assays: 10 mM Tris pH 7.5, 150 mM NaCl, 3.4 mM EDTA, 0.001% NP-40, 30 C. The settings on record: tags: His6 N-terminal (pET28a); label: 5' 32P. The gist of the method: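 These values rest on relative association constants, computed from read-count changes of each RNA species versus the control reaction and normalised to the cognate motif. Reads came from free RNA recovered by 8% native PAGE after purified RbFox RRM (wild type or mutant) at increasing concentrations was equilibrated for 10 min in 50 µL with 1 nM of a 5′-radiolabelled pool with 7 randomized nucleotides and DNA-annealed flanks.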
For the molecule B1, the binding signal is 0.126 KA relative to UGCAUGU. On to B2, for which the binding signal was 0.133 KA relative to UGCAUGU.

As to B3, the binding signal was 0.494 KA relative to UGCAUGU. Then B4, with 0.152 KA relative to UGCAUGU; and B5, with 0.0596 KA relative to UGCAUGU; and B6, with 0.117 KA relative to UGCAUGU. Then B7, with 0.0589 KA relative to UGCAUGU; and B8, with 0.118 KA relative to UGCAUGU.

Take B9: the binding signal is 0.07 KA relative to UGCAUGU.

Turning to B10, the binding signal was 0.0806 KA relative to UGCAUGU. As for B11, the binding signal was 0.114 KA relative to UGCAUGU.

As to B12, the binding signal is 0.0923 KA relative to UGCAUGU. Turning to B13, the binding signal was 0.576 KA relative to UGCAUGU. B14: the binding signal was 0.128 KA relative to UGCAUGU. Consider B15, for which the binding signal was 0.129 KA relative to UGCAUGU.

On to B16, for which the binding signal is 0.0246 KA relative to UGCAUGU.

Consider B17, for which the binding signal is 0.08 KA relative to UGCAUGU. For the molecule B18, the binding signal is 0.126 KA relative to UGCAUGU. Then B19, with 0.0899 KA relative to UGCAUGU. In the case of B20 it was 0.111 KA relative to UGCAUGU.

The values above are taken from publication PMC9911399, “Two distinct binding modes provide the RNA-binding protein RbFox with extraordinary sequence specificity”.
